Experimental data: publication PMC6123813 (Communications biology, 2018)

Legend:
[1] = molecular target: the molecule itself; assay: FRET or BRET; FSI-FRET (two-photon spectral imaging) between EphA2-mTurq and EphA2-eYFP in the plasma membrane of live HEK293T cells in hypo-osmotic medium; no ligand; dimer to monomers, two-dimensional constants in receptors per μm^2
[2] = molecular target: the molecule itself; assay: FRET or BRET; FSI-FRET between EphA2-mTurq and EphA2-eYFP in the plasma membrane of live HEK293T cells in hypo-osmotic medium; with 5 μg per ml (~50 nM) ephrinA1-Fc; also at donor to acceptor ratios 3:1, 1:1, 1:3

Protein | stoichiometry N [1] | stoichiometry N [2]
EphA2 receptor, wild-type, full-length, tagged at the C-terminus with mTurquoise or eYFP (receptor) [sequence of about 500 residues omitted]IGGVAVGVVLLLVLAGVGFFIHRRRKNQRARQSPEDVYFSKSEQLKPLKTYVDPHTYEDPNQAVLKFTTEIHPSCVTRQKVIGAGEFGEVYKGMLKTSSGKKEVPVAIKTLKAGYTEKQRVDFLGEAGIMGQFSHHNIIRLEGVISKYKPMMIITEYMENGALDKFLREKDGEFSVLQLVGMLRGIAAGMKYLANMNYVHRDLAARNILVNSNLVCKVSDFGLSRVLEDDPEATYTTSGGKIPIRWTAPEAISYRKFTSASDVWSFGIVMWEVMTYGERPYWELSNHEVMKAINDGFRLPTPMDCPSAIYQLMMQCWQQERARRPKFADIVSILDKLIRAPDSLKTLADFDPRVSIRLPSTSGSEGVPFRTVSEWLESIKMQQYTEHFMAAGYTAIEKVVQMTNDDIKRIGVRLPGHQKRIAYSLLGLKDQVNTVGIPI | 2 | > 2
EphA2 G131Y mutant, full-length, tagged at the C-terminus with mTurquoise or eYFP (receptor, UniProt P29317 24-976, looked up) [sequence of about 500 residues with changes omitted]IGGVAVGVVLLLVLAGVGFFIHRRRKNQRARQSPEDVYFSKSEQLKPLKTYVDPHTYEDPNQAVLKFTTEIHPSCVTRQKVIGAGEFGEVYKGMLKTSSGKKEVPVAIKTLKAGYTEKQRVDFLGEAGIMGQFSHHNIIRLEGVISKYKPMMIITEYMENGALDKFLREKDGEFSVLQLVGMLRGIAAGMKYLANMNYVHRDLAARNILVNSNLVCKVSDFGLSRVLEDDPEATYTTSGGKIPIRWTAPEAISYRKFTSASDVWSFGIVMWEVMTYGERPYWELSNHEVMKAINDGFRLPTPMDCPSAIYQLMMQCWQQERARRPKFADIVSILDKLIRAPDSLKTLADFDPRVSIRLPSTSGSEGVPFRTVSEWLESIKMQQYTEHFMAAGYTAIEKVVQMTNDDIKRIGVRLPGHQKRIAYSLLGLKDQVNTVGIPI | 2 | 
EphA2 R103E mutant, full-length, tagged at the C-terminus with mTurquoise or eYFP (receptor, UniProt P29317 24-976, looked up) [sequence of about 500 residues with changes omitted]IGGVAVGVVLLLVLAGVGFFIHRRRKNQRARQSPEDVYFSKSEQLKPLKTYVDPHTYEDPNQAVLKFTTEIHPSCVTRQKVIGAGEFGEVYKGMLKTSSGKKEVPVAIKTLKAGYTEKQRVDFLGEAGIMGQFSHHNIIRLEGVISKYKPMMIITEYMENGALDKFLREKDGEFSVLQLVGMLRGIAAGMKYLANMNYVHRDLAARNILVNSNLVCKVSDFGLSRVLEDDPEATYTTSGGKIPIRWTAPEAISYRKFTSASDVWSFGIVMWEVMTYGERPYWELSNHEVMKAINDGFRLPTPMDCPSAIYQLMMQCWQQERARRPKFADIVSILDKLIRAPDSLKTLADFDPRVSIRLPSTSGSEGVPFRTVSEWLESIKMQQYTEHFMAAGYTAIEKVVQMTNDDIKRIGVRLPGHQKRIAYSLLGLKDQVNTVGIPI | 2 | 
